Measured values: the supplement of paper PMC12217912
The list shows a part of the results. The full chains were built here from the parent and the listed change. Inactive controls read about 0.05.

B1: TEV protease; numbered along this chain (parent)
chain: MGESLFKGPRDYNPISSSICHLTNESDGHTTSLYGIGFGPFIITNKHLFRRNNGTLVVQSLHGVFKVKDTTTLQQHLVDGRDMIIIRMPKDFPPFPQKLKFREPQREERICLVTTNFQTKSMSSMVSDTSCTFPSGDGIFWKHWIQTKDGQCGSPLVSTRDGFIVGIHSASNFTNTNNYFTSVPKNFMELLTNQEAQQWVSGWRLNADSVLWGGHKVFMVKPEEPFQPVKEATQL

Variants of: B1
Assay: raw area under fraction-flipped curve 0-4 h after induction (AUC4h, not background-subtracted), DNA-recorder readout of cleavage of the substrate (dimensionless); higher = more cleavage of the substrate by the protease variant
Conditions: temperature: 34 °C; time window: 0-4 h after rhamnose induction
Procedure: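 In vivo DNA recorder in E. coli TOP10(DE3) ΔrhaA at 34 °C. Each TEVp single-site mutant (parent TEVp 0) is paired with a single-site variant of the 7-mer TEVs (canonical ENLYFQ|S). The substrate sits between flexible linkers in a Bxb1-sfGFP-TEVs-SsrA fusion, so cleavage stabilises Bxb1 and speeds flipping of a recombination array, read by NGS. The value is the raw area under the fraction-flipped curve over 0-4 h after rhamnose induction (AUC4h), with ≥20 reads per time point. It is not background-subtracted; inactive controls average about 0.047.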
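Further: Bxb1 expression induced with 0.2% (w/v) L-rhamnose at OD600 near 0.5, cultures sampled hourly, flipped fraction per protease–substrate barcode pair counted by paired-end Illumina sequencing.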

| Variant | area with substrate ENLYFQA | area with substrate ENLYFQC | area with substrate ENLYFQG | area with substrate ENLYFQI | area with substrate ENLYFQL | area with substrate ENLYFQM | area with substrate ENLYFQN | area with substrate ENLYFQR | area with substrate ENLYFQS | area with substrate ENLYFQT | area with substrate ENLYFQW | area with substrate ENLYFQY | area with substrate ENLYFQD | area with substrate ENLYFQH | area with substrate ENLYFQK | area with substrate ENLYFQP | area with substrate ENLYFQF | area with substrate ENLYFQQ | area with substrate ENLYFQV | area with substrate ENLYFQE |
| --- | --- | --- | --- | --- | --- | --- | --- | --- | --- | --- | --- | --- | --- | --- | --- | --- | --- | --- | --- | --- |
| MGESLFKGPRDYNPISSSICHLTNESDGHTTSLYGIGFGPFIITNKHLFRRNNGTLVVQSLHGVFKVKDTTTLQQHLVDGRDMIIIRMPKDFPPFPQKLKFREPQREERICLVTTNFQTKSMSSMVSDTSCTFPSGDGIFWKHWIQTKDGQCGSPLVSTRDGFIVGIHSASNFTNTNNYFTSVPKNFMELLTNQEAQQWVGGWRLNADSVLWGGHKVFMVKPEEPFQPVKEATQL [S201G] | 0.068 | 0.0627 | 0.0827 | 0.0668 | 0.0613 | 0.0575 | 0.0592 | 0.0503 | 0.0679 | 0.0612 | 0.0459 | 0.0607 |  |  |  |  |  |  |  |  |
| MGESLFKGPRDYNPISSSICHLTNESDGHTTSLYGIGFGPFIITNKHLFRRNNGTLVVQSLHGVFKVKDTTTLQQHLVDGRDMIIIRMPKDFPPFPQKLKFREPQREERICLVTTNFQTKSMSSMVSDTSCTFPSGDGIFWKHWIQTKDGQCGSPLVSTRDGFIVGIHSASNFTNTNNYFTSVPKNFMELLTNQEAQQWVSRWRLNADSVLWGGHKVFMVKPEEPFQPVKEATQL [G202R] | 0.0809 |  | 0.0733 | 0.0463 |  | 0.0615 | 0.065 | 0.0666 | 0.0683 | 0.0573 |  | 0.0658 | 0.0585 | 0.0792 | 0.0565 | 0.0795 |  |  |  |  |
| MGESLFKGPRDYNPISSSICHLTNESDGHTTSLYGIGFGPFIITNKHLFRRNNGTLVVQSLHGVFKVKDTTTLQQHLVDGRDMIIIRMPKDFPPFPQKLKFREPQREERICLVTTNFQTKSMSSMVSDTSCTFPSGDGIFWKHWIQTKDGQCGSPLVSTRDGFIVGIHSASNFTNTNNYFTSVPKNFMELLTNQEAQQWVSGVRLNADSVLWGGHKVFMVKPEEPFQPVKEATQL [W203V] | 0.074 | 0.0736 | 0.0789 | 0.0552 | 0.0501 |  | 0.0568 | 0.0577 | 0.0745 | 0.0632 |  |  | 0.061 |  |  | 0.0773 | 0.043 | 0.0621 | 0.0617 |  |
| MGESLFKGPRDYNPISSSICHLTNESDGHTTSLYGIGFGPFIITNKHLFRRNNGTLVVQSLHGVFKVKDTTTLQQHLVDGRDMIIIRMPKDFPPFPQKLKFREPQREERICLVTTNFQTKSMSSMVSDTSCTFPSGDGIFWKHWIQTKDGQCGSPLVSTRDGFIVGIHSASNFTNTNNYFTSVPKNFMELLTNQEAQQWVSGWGLNADSVLWGGHKVFMVKPEEPFQPVKEATQL [R204G] | 0.066 | 0.0875 | 0.0942 | 0.059 | 0.0635 | 0.0534 | 0.0741 | 0.0436 | 0.0889 | 0.0653 | 0.0458 |  | 0.0665 |  | 0.0625 |  | 0.0751 |  | 0.058 | 0.0642 |
| MGESLFKGPRDYNPISSSICHLTNESDGHTTSLYGIGFGPFIITNKHLFRRNNGTLVVQSLHGVFKVKDTTTLQQHLVDGRDMIIIRMPKDFPPFPQKLKFREPQREERICLVTTNFQTKSMSSMVSDTSCTFPSGDGIFWKHWIQTKDGQCGSPLVSTRDGFIVGIHSASNFTNTNNYFTSVPKNFMELLTNQEAQQWVSGWMLNADSVLWGGHKVFMVKPEEPFQPVKEATQL [R204M] | 0.1 | 0.12 | 0.117 | 0.0584 | 0.0632 | 0.0983 | 0.0811 | 0.0595 | 0.111 | 0.0706 | 0.0619 | 0.0816 | 0.0797 |  | 0.0704 | 0.062 | 0.0798 |  | 0.108 | 0.0695 |
| MGESLFKGPRDYNPISSSICHLTNESDGHTTSLYGIGFGPFIITNKHLFRRNNGTLVVQSLHGVFKVKDTTTLQQHLVDGRDMIIIRMPKDFPPFPQKLKFREPQREERICLVTTNFQTKSMSSMVSDTSCTFPSGDGIFWKHWIQTKDGQCGSPLVSTRDGFIVGIHSASNFTNTNNYFTSVPKNFMELLTNQEAQQWVSGWVLNADSVLWGGHKVFMVKPEEPFQPVKEATQL [R204V] | 0.104 | 0.141 | 0.108 | 0.0658 | 0.0652 | 0.0728 | 0.0834 | 0.0628 | 0.121 | 0.063 | 0.0692 | 0.0952 |  | 0.0878 | 0.0663 | 0.0583 |  |  | 0.0652 | 0.064 |
| MGESLFKGPRDYNPISSSICHLTNESDGHTTSLYGIGFGPFIITNKHLFRRNNGTLVVQSLHGVFKVKDTTTLQQHLVDGRDMIIIRMPKDFPPFPQKLKFREPQREERICLVTTNFQTKSMSSMVSDTSCTFPSGDGIFWKHWIQTKDGQCGSPLVSTRDGFIVGIHSASNFTNTNNYFTSVPKNFMELLTNQEAQQWVSGWRLNKDSVLWGGHKVFMVKPEEPFQPVKEATQL [A207K] | 0.0399 | 0.089 | 0.0804 | 0.0657 | 0.0539 | 0.0752 | 0.0699 | 0.0682 | 0.0922 |  | 0.0596 | 0.0937 |  | 0.0469 |  |  |  |  |  |  |
| MGESLFKGPRDYNPISSSICHLTNESDGHTTSLYGIGFGPFIITNKHLFRRNNGTLVVQSLHGVFKVKDTTTLQQHLVDGRDMIIIRMPKDFPPFPQKLKFREPQREERICLVTTNFQTKSMSSMVSDTSCTFPSGDGIFWKHWIQTKDGQCGSPLVSTRDGFIVGIHSASNFTNTNNYFTSVPKNFMELLTNQEAQQWVSGWRLNADDVLWGGHKVFMVKPEEPFQPVKEATQL [S209D] | 0.105 | 0.115 |  |  | 0.041 | 0.0844 | 0.0717 |  | 0.118 |  | 0.0608 |  |  | 0.0819 | 0.0549 | 0.0607 |  |  | 0.0539 |  |
| MGESLFKGPRDYNPISSSICHLTNESDGHTTSLYGIGFGPFIITNKHLFRRNNGTLVVQSLHGVFKVKDTTTLQQHLVDGRDMIIIRMPKDFPPFPQKLKFREPQREERICLVTTNFQTKSMSSMVSDTSCTFPSGDGIFWKHWIQTKDGQCGSPLVSTRDGFIVGIHSASNFTNTNNYFTSVPKNFMELLTNQEAQQWVSGWRLNADSNLWGGHKVFMVKPEEPFQPVKEATQL [V210N] | 0.0709 | 0.0819 | 0.0999 | 0.0472 | 0.0592 | 0.083 | 0.0612 | 0.0697 | 0.075 | 0.0627 | 0.0554 |  | 0.0714 |  | 0.0621 |  | 0.0457 | 0.0698 | 0.0626 |  |
